Measurements reported in PMC5434977 (Analytical chemistry, 2016).

What was measured:
Escherichia coli MTAN = Escherichia coli MTAN (Escherichia coli, UniProt P0AF12)
[1] = tested on: Staphylococcus aureus MTAN; conditions: substrate 2AMTA
[2] = tested on: Neisseria meningitidis MTAN; conditions: substrate 2AMTA

## 2-amino-5′-methylthioadenosine [2AMTA]
Escherichia coli MTAN; E. coli MTAN, 2AMTA concentrations up to 300 μM
  inhibition with respect to MTA: did not act as an inhibitor
Escherichia coli MTAN; compared to hpMTAN
  activity of E. coli MTAN with 2AMTA as substrate: inactive
[1]
  Km: 10.4 ± 4.2 µM
  kcat: 1.8 ± 0.26 s⁻¹
[2]
  Km: 7 ± 1.9 µM
  kcat: 1.9 ± 0.27 s⁻¹
